# Read-outs that look alike come from different tables or passages of the source.
# What was measured:
# [1] = test system: S. pneumoniae 163 Ery-R (MefA); type: cell-based; details: broth microdilution
# S. aureus RN220 = type: cell-based; details: broth microdilution
# [2] = test system: S. pneumoniae 303 Ery-R (ermB); type: cell-based; details: broth microdilution
# [3] = test system: H. influenzae 49247 Ery-S; type: cell-based; details: broth microdilution
# [4] = test system: S. aureus 96:11480 Ery-R (MLSb); type: cell-based; details: broth microdilution
# S. aureus 29213 Ery-S = type: cell-based; details: broth microdilution
# S. aureus (ATCC 29213) = assay: Time kill curve; type: cell-based; details: tested at 2×, 4×, 8×MIC
# [5] = test system: phagocytized S. aureus ATCC 25923; type: cell-based, Staphylococcus aureus
# S. mitis (112-1885A) = assay: Time kill curve; type: cell-based; details: tested at 2×, 4×, 8×MIC
# S. pyogenes (117-1612A) = assay: Time kill curve; type: cell-based; details: tested at 2×, 4×, 8×MIC
# E. faecalis (ATCC 29212) = assay: Time kill curve; type: cell-based; details: tested at 2×, 4×, 8×MIC
# [6] = test system: S. epidermidis (095-2777A); assay: Time kill curve; type: cell-based; details: tested at 2×, 4×, 8×MIC
# THP-1 macrophages = assay: Cellular accumulation, microbiological assay; type: in vitro ADME, human
# S. aureus ATCC 25923 = type: cell-based, Staphylococcus aureus
smiles,measurement,setting,value
CC[C@H]1OC(=O)[C@H](C)[C@@H](OC2CC(C)(OC)C(O)C(C)O2)[C@H](C)[C@@H](OC2OC(C)CC(N(C)C)C2O)[C@@](C)(OC)C[C@@H](C)C(=O)[C@H](C)[C@H]2N(CCCCn3cc(COc4c(Cl)cccc4Cl)nn3)C(=O)O[C@]12C (stereo partly drawn) [Entry 20d],"Minimum inhibitory concentration, S. pneumoniae 163 Ery-R (MefA)",[1],0.5 µg/mL
same,"MIC, S. aureus RN220",S. aureus RN220,8 µg/mL
same,"Minimum inhibitory concentration, S. pneumoniae 303 Ery-R (ermB)",[2],2 µg/mL
CCC1OC(=O)C(C)C(=O)C(C)C(OC2OC(C)CC(N(C)C)C2O)C(C)(OC)CC(C)C(=O)C(C)C2N(CCCCCn3cc(-c4ccc(C(F)(F)F)cc4)nn3)C(=O)OC12C (stereo not drawn) [Entry 13c],"Minimum inhibitory concentration, S. pneumoniae 163 Ery-R (MefA)",[1],0.5 µg/mL
same,"Minimum inhibitory concentration, H. influenzae 49247 Ery-S",[3],64 µg/mL
same,"Minimum inhibitory concentration, S. aureus 96:11480 Ery-R (MLSb)",[4],1 µg/mL
same,"Minimum inhibitory concentration, S. aureus 29213 Ery-S",S. aureus 29213 Ery-S,0.5 µg/mL
same,"Minimum inhibitory concentration, S. pneumoniae 303 Ery-R (ermB)",[2],2 µg/mL
CC[C@H]1OC(=O)[C@H](C)[C@@H](OC2CC(C)(OC)C(O)C(C)O2)[C@H](C)[C@@H](OC2OC(C)CC(N(C)C)C2O)[C@@](C)(OC)C[C@@H](C)C(=O)[C@H](C)[C@H]2N(CCCCn3cc(-c4cccnc4)nn3)C(=O)O[C@]12C (stereo partly drawn) [Entry 20b],"Minimum inhibitory concentration, S. pneumoniae 163 Ery-R (MefA)",[1],≦0.06 μg/mL
same,"MIC, S. aureus RN220",S. aureus RN220,8 µg/mL
same,"Minimum inhibitory concentration, S. pneumoniae 303 Ery-R (ermB)",[2],1 µg/mL
CCC1OC(=O)C(C)C(=O)C(C)C(OC2OC(C)CC(N(C)C)C2O)C(C)(OC)CC(C)C(=O)C(C)C2N(CCCCn3cc(-c4cccnc4)nn3)C(=O)OC12C (stereo not drawn) [Entry 15b],"Minimum inhibitory concentration, S. pneumoniae 163 Ery-R (MefA)",[1],2 µg/mL
same,"Minimum inhibitory concentration, H. influenzae 49247 Ery-S",[3],64 µg/mL
same,"Minimum inhibitory concentration, S. aureus 96:11480 Ery-R (MLSb)",[4],4 µg/mL
same,"Minimum inhibitory concentration, S. pneumoniae 303 Ery-R (ermB)",[2],64 µg/mL
CCC1OC(=O)C(C)C(=O)C(C)C(OC2OC(C)CC(N(C)C)C2O)C(C)(OC)CC(C)C(=O)C(C)C2N(CCCCn3cc(Cn4nnc5ccccc54)nn3)C(=O)OC12C (stereo not drawn) [Entry 18b],"Minimum inhibitory concentration, S. pneumoniae 163 Ery-R (MefA)",[1],4 µg/mL
same,"Minimum inhibitory concentration, H. influenzae 49247 Ery-S",[3],32 µg/mL
same,"Minimum inhibitory concentration, S. aureus 96:11480 Ery-R (MLSb)",[4],2 µg/mL
same,"Minimum inhibitory concentration, S. aureus 29213 Ery-S",S. aureus 29213 Ery-S,1 µg/mL
same,"Minimum inhibitory concentration, S. pneumoniae 303 Ery-R (ermB)",[2],64 µg/mL
CCC1OC(=O)C(C)C(=O)C(C)C(OC2OC(C)CC(N(C)C)C2O)C(C)(OC)CC(C)C(=O)C(C)C2N(CCCn3cc(-c4ccccn4)nn3)C(=O)OC12C (stereo not drawn) [Entry 14a],"Minimum inhibitory concentration, S. pneumoniae 163 Ery-R (MefA)",[1],0.5 µg/mL
same,"Minimum inhibitory concentration, H. influenzae 49247 Ery-S",[3],> 64 µg/mL
same,"Minimum inhibitory concentration, S. aureus 96:11480 Ery-R (MLSb)",[4],2 µg/mL
same,"Minimum inhibitory concentration, S. aureus 29213 Ery-S",S. aureus 29213 Ery-S,2 µg/mL
same,"Minimum inhibitory concentration, S. pneumoniae 303 Ery-R (ermB)",[2],> 64 µg/mL
CC[C@H]1OC(=O)[C@H](C)[C@@H](OC2CC(C)(OC)C(O)C(C)O2)[C@H](C)[C@@H](OC2OC(C)CC(N(C)C)C2O)[C@@](C)(OC)C[C@@H](C)C(=O)[C@H](C)[C@H]2N(CCCCn3cc(-c4cccc(N)c4)nn3)C(=O)O[C@]12C (stereo partly drawn) [Entry 20c],"Minimum inhibitory concentration, S. pneumoniae 163 Ery-R (MefA)",[1],0.5 µg/mL
same,"MIC, S. aureus RN220",S. aureus RN220,8 µg/mL
same,"Minimum inhibitory concentration, S. pneumoniae 303 Ery-R (ermB)",[2],2 µg/mL
CCC1OC(=O)C(C)C(=O)C(C)C(OC2OC(C)CC(N(C)C)C2O)C(C)(OC)CC(C)C(=O)C(C)C2N(CCCCCn3cc(COc4c(Cl)cccc4Cl)nn3)C(=O)OC12C (stereo not drawn) [Entry 17c],"Minimum inhibitory concentration, H. influenzae 49247 Ery-S",[3],32 µg/mL
same,"Minimum inhibitory concentration, S. aureus 96:11480 Ery-R (MLSb)",[4],0.5 µg/mL
same,"Minimum inhibitory concentration, S. aureus 29213 Ery-S",S. aureus 29213 Ery-S,0.25 µg/mL
same,"Minimum inhibitory concentration, S. pneumoniae 303 Ery-R (ermB)",[2],2 µg/mL
"CC[C@H]1OC(=O)[C@H](C)[C@@H](O[C@H]2C[C@@](C)(OC)[C@@H](O)[C@H](C)O2)[C@H](C)[C@@H](O[C@@H]2O[C@H](C)C[C@H](N(C)C)[C@H]2O)[C@](C)(OC)C[C@@H](C)C(=O)[C@H](C)[C@@H](O)[C@]1(C)O [CLR, clarithromycin]",Antimicrobial activity (time kill curve),S. aureus (ATCC 29213),Cidal at 8X only
same,"Emax, CFU decrease at 24 h from original inoculum",[5],−0.18 log10 units
same,"Emax, Δ log10 CFU at 24 h compared to the post-phagocytosis inoculum",[5],−0.18 Δ log10 CFU
same,"Intracellular activity (24 h), Emax",[5],−0.1 ± 0.1 Δ log cfu from time 0 h
same,Static dose,[5],~0.98 mg/L
same,Antimicrobial activity (time kill curve),S. mitis (112-1885A),Cidal at 8X only (slow killing)
same,Antimicrobial activity (time kill curve),S. pyogenes (117-1612A),Cidal at 8X only (slow killing)
same,Antimicrobial activity (time kill curve),E. faecalis (ATCC 29212),Static
same,Antimicrobial activity (time kill curve),[6],Static
same,effect of gemfibrozil on cellular accumulation,"THP-1 macrophages; gemfibrozil, MRP inhibitor",Neither verapamil nor gemfibrozil affected the accumulation
same,effect of verapamil on cellular accumulation,"THP-1 macrophages; verapamil, Pgp inhibitor",Neither verapamil nor gemfibrozil affected the accumulation
same,Cs,S. aureus ATCC 25923,1.32 mg/L
same,"Emax, CFU decrease at 24 h from original inoculum",S. aureus ATCC 25923,−1.41 log10 units
same,"Extracellular activity (24 h), Emax",S. aureus ATCC 25923; pH 5.5,−1.5 ± 0.8 Δ log cfu from time 0 h
same,Cs,S. aureus ATCC 25923; pH 7.4,2.65 x MIC
same,"Extracellular activity (24 h), Emax",S. aureus ATCC 25923; pH 7.4,−1.4 ± 0.2 Δ log cfu from time 0 h

# — US9439918B2 (priority 2008, dated 2016)
